Assay results taken from PubChem BioAssay AID1347073 (National Center for Advancing Translational Sciences (NCATS), 2019).
About 200 (0.44%) of roughly 45,000 compounds were called active. Another 7% or so got no clear call; they are omitted. Calls come from the whole dose curve; as a rule, active = well fitted activation curve with a large enough effect; inconclusive = small, poorly fitted or top-dose-only effect; inactive = no such curve, though single readings can be large or run the other way. The list shows a part of the results.

assay: qHTS of TDP-43 Inhibitors: NCGC Sytravon Library Screen; conditions: yeast TDP-43 toxicity rescue, BacTiter-Glo growth, 24 h; series mostly up to 46.1 µM; growth rescue (activation): at the top concentration; note: 0% is about no effect; nearly all actives have a fitted effect of over 55% in size
How it was run: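 TDP-43-expressing yeast, pregrown in raffinose, seeded at OD600 0.02 in galactose medium with compound for 24 hr at 30 deg C. Growth read by BacTiter-Glo luminescence, so rescue of toxicity appears as activation.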

Row | SMILES | growth rescue (activation)
1 | CCN(CC)CCN(C)c1ccc(N2C(=O)C3CC=CCC3C2=O)cc1[N+](=O)[O-] (stereo not given) | inactive: 5.15%
2 | O=C(NC1CCN(S(=O)(=O)c2cccc([N+](=O)[O-])c2)CC1)C1CCCCC1 | inactive: -10.6%
3 | CCCNC(=O)C1(C)CCCN(Cc2ccccc2N(C)C)C1 (stereo not given) | inactive: 10.8%
4 | COc1cc(/C=N/N=C2/NC(=O)C(Cc3ccc(F)cc3)S2)ccc1O (stereo not given) | inactive: -17%
5 | Cn1nc(C(=O)OCC(=O)Nc2ccc(F)cc2Cl)c2ccccc2c1=O | inactive: 7.25%
6 | O=C(Nc1ccc(NC(=O)C2CCCCC2)nc1)c1cccc(F)c1 | inactive: 11.8%
7 | COc1ccc(CC(=O)NCC2CCCN(Cc3ccc(OC(F)(F)F)cc3)C2)cc1 (stereo not given) | inactive: 2.21%
8 | Cn1c(=O)c2c(nc(Br)n2Cc2nnc(N)s2)n(C)c1=O | inactive: 9.51%
9 | COc1cc(/C=C/C(=O)O)cc(S(=O)(=O)Nc2ccc3c(c2)CCC3)c1OC | inactive: -12.6%
10 | CCOC(=O)c1c(C)oc2c1c(C=NCC1CCCO1)c(O)c1ccccc12 (stereo not given) | inactive: -9.97%
11 | O=C1NCC(c2ccccc2)C1C(=O)N/N=C/c1ccc(Cl)s1 (stereo not given) | inactive: -4.47%
12 | O=C(CN1CCCc2ccccc21)N/N=C/c1ccc(F)cc1F | inactive: -11.4%
13 | Cc1cc(CSc2ccccc2)ccc1NC(=O)c1ccc(CN2CCOCC2)cc1 | inactive: 0.582%
14 | OC(c1ccc(F)cc1)c1ncc(-c2ccc3ccccc3c2)[nH]1 (stereo not given) | inactive: -6.1%
15 | CC(C)Oc1ccc(C(=O)NC2CCN(Cc3ccccc3)CC2)cc1 | inactive: 7.67%
16 | O=C(CNS(=O)(=O)c1ccccc1)NCC(=O)OCc1ccc(Br)cc1 | inactive: -10.4%
17 | CCN(CC)S(=O)(=O)c1ccc2oc(Nc3ccc(OC)cc3)nc2c1 | inactive: 15.1%
18 | COc1ccc(NC(=O)CC2(CC(=O)N3CCOCC3)CCCC2)cc1Cl | inactive: 13.8%
19 | COc1cccc(CNCc2ccc(C(=O)O)cc2)c1OC | inactive: 7.29%
20 | CCc1ccc(-c2nc(CSCC(=O)NC3CC3)c(C)o2)cc1 | inactive: -16.7%
21 | O=C(Cn1cnc2sc(-c3ccccc3)cc2c1=O)NCCc1ccccc1 | inactive: 6.69%
22 | CCOc1cc(/C=N/NC(=O)CCCC(=O)NC2CCCCC2)ccc1O | inactive: -5.06%
23 | COC(=O)c1ccc(NC(=S)NC2c3ccccc3CC2O)cc1 (stereo not given) | inactive: -3.01%
24 | O=C(Nc1cccc(F)c1)N1CCC(n2c(=O)[nH]c3ccccc32)CC1 | inactive: -0.145%
25 | Cc1cc(OCC(=O)OCC(=O)N(C)C2CCS(=O)(=O)C2)ccc1Cl (stereo not given) | inactive: -19.7%
26 | CCCCN(C(=O)c1ccncc1)c1c(N)n(CCC)c(=O)[nH]c1=O | inactive: 0.585%
27 | CC(=O)c1ccc(N2CCN(C(=O)c3cc(-c4ccncc4)nc4ccc(Cl)cc34)CC2)cc1 | inactive: -1.69%

Row | SMILES | growth rescue (activation)
28 | Cc1nn(-c2ccccc2)c(Cl)c1/C=C1\SC(=S)N(C)C1=O | inactive: -4.45%
29 | CCOCCOC(=O)c1[nH]c2c(c1C)C(=O)CC(c1ccccc1)C2 (stereo not given) | inactive: 18.4%
30 | COc1ccc(Br)cc1/C=N/NC(=O)c1cccnc1 | inactive: -26.1%
31 | Cc1nn(C(=O)COc2ccccc2)c(C)c1Sc1ccccc1 | inactive: 28.7%
32 | CCc1ccccc1NC(=O)Cn1nnc(-c2nc(-c3ccc(C)cc3)no2)c1N | inactive: 7.19%
33 | Cc1c(NC(=O)CSc2nnc(Nc3ccccc3)s2)c(=O)n(-c2ccccc2)n1C | inactive: 3.57%
34 | CCOC(=O)N(C)S(=O)(=O)c1ccccc1[N+](=O)[O-] | inactive: -15.9%
35 | CSc1ccc(CN2CCC2(C)C(=O)NCc2cccc(C(F)(F)F)c2)cc1 (stereo not given) | inactive: 19.6%
36 | COc1ccccc1-n1cn[nH]c1=S | inactive: 18.1%
37 | O=C(O)c1ccc(N/N=C/c2ccc(-c3ccc(Br)cc3)o2)cc1 | inactive: 17.5%
38 | O=C(COC(=O)C1CCN(/C=C/C(=O)C(F)(F)F)CC1)Nc1ccccc1 | inactive: -12.6%
39 | Cc1noc(C)c1COc1ccc(C(=O)O)cc1 | inactive: 7.18%
40 | Cc1ccc(C(=O)NNC(=O)c2cccs2)cc1 | inactive: 24.2%
41 | CCc1nc2ccc(C(=O)NCc3ccccc3OC)cn2c1N(C=O)CCC(C)C | inactive: 17.3%
42 | CNC(=O)c1cc(S(=O)(=O)Nc2ccc3c(c2)OCO3)ccc1C | inactive: 7.85%
43 | COc1ccc(/C=C(\C#N)c2cc(OC)c(OC)cc2[N+](=O)[O-])cc1 | inactive: 15.8%
44 | COc1cc(OC)c(NC(=S)Nc2cccc(C)c2)cc1Cl | inactive: -23.3%
45 | COc1ccc(/C=N/NC(=O)c2cc[n+]([O-])cc2)cc1O | inactive: -4.01%
46 | COc1cc2c(cc1OC)CN(c1ccc3ccccc3n1)CC2 | inactive: 11.7%
47 | CCOc1cc(CNC(=O)CCCn2c(=O)c3cccn3c3cccnc32)cc(OCC)c1OCC | inactive: 15.2%
48 | COc1ccccc1-c1nc(C#N)c(NCc2ccc(F)cc2)o1 | inactive: 22.5%
49 | COc1ccc(OC)c(NC(=O)C2=C(C)Nc3ncnn3C2c2cccs2)c1 (stereo not given) | inactive: 32.8%
50 | c1ccc(-c2nccc(-c3ccco3)n2)nc1 | inactive: 24.1%
51 | CC(C)c1ccc(CN2CCC2(C)C(=O)Nc2cnc3ccccc3c2)cc1 (stereo not given) | inactive: 4.56%
52 | COc1cccc(-c2cnc(C(O)c3cccc(CN4CCCCC4)c3)[nH]2)c1 (stereo not given) | inactive: 2.81%
53 | O=C(NCCO)C1CCN(S(=O)(=O)c2ccc(F)cc2)CC1 | inactive: 4.64%
54 | CCc1ccc(NC(=O)c2cc(-c3ccc4c(c3)OCO4)on2)cc1 | inactive: -7.93%

Row | SMILES | growth rescue (activation)
55 | COc1cc(-n2c(=O)c3ccccc3n(CC(=O)c3ccc(F)cc3)c2=O)cc(OC)c1OC | inactive: 10.1%
56 | C[C@@H](C(=O)Nc1cccc(S(=O)(=O)N2CCOCC2)c1)N1C(=O)C2CC=CCC2C1=O (stereo not given in full) | inactive: 8.92%
57 | C=CCn1c(COc2ccc(F)cc2)nnc1SCC(=O)Nc1cccc(S(N)(=O)=O)c1 | inactive: 0.218%
58 | O=C(c1ccco1)N1CCN(CC(O)COc2ccc(Br)cc2)CC1 (stereo not given) | inactive: 5.71%
59 | CCc1ccc(NC(=O)c2cc(-c3cccs3)on2)cc1 | inactive: 28.6%
60 | O=C1CCC/C(=N/NC(=O)C2CCN(S(=O)(=O)c3cccs3)CC2)C1 | inactive: 2.17%
61 | Cc1ccc(C(=O)NCCc2ccc(S(=O)(=O)N3CCCC3)cc2)cc1 | inactive: -0.971%
62 | COC(=O)C(NC(C)=O)(Nc1cccc(C)n1)C(F)(F)F (stereo not given) | inactive: 7.8%
63 | COC(=O)c1sccc1NC(=S)NCc1ccc(Cl)cc1 | inactive: 34.8%
64 | Cn1c(=O)oc2cc(S(=O)(=O)N3CCOCC3)ccc21 | inactive: 23.1%
65 | Cc1ccc(Nc2nnc(SCC(=O)Nc3cccc(S(=O)(=O)NC4=NCCCCC4)c3)s2)cc1 | inactive: -8.2%
66 | Cc1n[nH]c(C)c1Sc1ccccc1N=Cc1cc(Cl)cc([N+](=O)[O-])c1O | inactive: -37.7%
67 | COc1ccc(CNCCC(c2ccc(F)cc2)c2ccc(OC(C)C)cc2)cc1OC (stereo not given) | inactive: -1.39%
68 | COc1ccccc1CNC(=O)CCc1c(C)nc2cc(-c3ccccc3OC)nn2c1C | inactive: 9.05%
69 | Cc1nnc(SCC(=O)NC(=O)NC(C)C)s1 | inactive: 0.213%
70 | CCc1ccc(NC(=O)COC(=O)c2cccs2)cc1 | inactive: 17.6%
71 | CC(=O)c1ccc(NC(=O)C(C)Sc2ccccn2)cc1 (stereo not given) | inactive: 11.1%
72 | N=c1c(C(=O)NC2CCCC2)cc2c(=O)n3ccccc3nc2n1CC1CCCO1 (stereo not given) | inactive: 7.82%
73 | CC(=O)Nc1ccc(NC(=O)C2CCCN2C(=O)Nc2cccc(F)c2)cc1 (stereo not given) | inactive: -19.3%
74 | CCn1cc(C(=O)O)c(=O)c2cnc(N3CCN(C(=S)NC(=O)c4ccccc4)CC3)nc21 | inactive: -4.76%
75 | CC(C)C(NS(=O)(=O)c1ccccc1)C(=O)OCc1cc([N+](=O)[O-])cc2c1OCOC2 (stereo not given) | inactive: 2.66%
76 | COc1ccccc1CNC(=O)c1ccc(OCC2CCCO2)cc1 (stereo not given) | inactive: 25.2%
77 | CCOC(=O)c1ccc(NC(=O)CCc2ccc(C)o2)cc1 | inactive: 20.1%
78 | CCNc1nc2c(c(=O)[nH]c(=O)n2C)n1CC(O)COc1ccc(Cl)cc1Cl (stereo not given) | inactive: 4.97%
79 | O=C(CCCN1C(=O)/C(=C\c2ccccc2)SC1=S)Nc1cccc(C(=O)O)c1 | inactive: 12.5%
80 | C#CCOc1ccc(C2C3=C(CCCC3=O)N(CC(=O)O)C3=C2C(=O)CCC3)cc1Br | inactive: 1.11%
81 | COc1ccccc1N1CCN(C2CCCN(C(=O)CN3CCCC3=O)C2)CC1 (stereo not given) | inactive: 10.2%

Row | SMILES | growth rescue (activation)
82 | CCn1c(N)[n+](CC(=O)Nc2ccc(SC(F)F)cc2)c2ccccc21 | inactive: 7.43%
83 | COc1cccc(C(=O)/C=C/c2ccc(N3CCCCC3)c([N+](=O)[O-])c2)c1 | inactive: 6.76%
84 | CC(C)N(C)c1ncnc2c1ncn2[C@H]1CN(Cc2ccc(F)cc2)C[C@@H](CO)O1 | inactive: 20.6%
85 | Cc1ccc(C)c(NC(=O)CSc2nc3ccc(N4C(=O)c5ccccc5C4=O)cc3s2)c1 | inactive: -0.281%
86 | C#CC[N+]1(CC#Cc2ccccc2)CCCC1 | inactive: 3.47%
87 | CCN(CC)S(=O)(=O)c1ccc(N/N=C/c2ccc(OC)c(OC)c2OC)nc1 | inactive: 0.863%
88 | CSc1ncccc1C(=O)OCC(=O)Nc1ccc(S(=O)(=O)N2CCCC2)cc1 | inactive: 23.2%
89 | O=C(CN1C(=O)COc2ccccc21)NCC1CCCO1 (stereo not given) | inactive: 4.81%
90 | COc1ccc(-c2[nH]ncc2CN(CCO)CC23CC4CC(CC(C4)C2)C3)c(OC)c1 | inactive: -5.34%
91 | C=CCN1CC2(c3ccccc3)CN(CC=C)CC(c3ccccc3)(C1)C2=O | inactive: 1.97%
92 | CCc1ccc(CC2(O)CC(C)N(C)CC2C)cc1 (stereo not given) | inactive: -3.79%
93 | COc1cc(CN(C)CC2CCCN(CCc3ccccc3F)C2)cc(Cl)c1OC (stereo not given) | inactive: -0.0838%
94 | CC(NC1c2ccccc2-c2ccccc21)c1ccccc1 (stereo not given) | inactive: -1.82%
95 | CN(CC(=O)NC1CCN(Cc2ccccc2)CC1)S(=O)(=O)c1ccc2c(c1)c(=O)n(C)c(=O)n2C | inactive: 1.18%
96 | CN(CC(=O)Nc1ccc(F)cc1)C(=O)c1ccc(OCc2cn3ccccc3n2)cc1 | inactive: -2.47%
97 | O=C(NNC(=O)C1CCCCC1)c1ccncc1 | inactive: -0.641%
98 | COc1cc2c(cc1OC)CN(Cc1ccc(F)cc1)CC2 | inactive: -0.142%
99 | CCC(Oc1ccccc1OC)C(=O)Nc1ccc2c(c1)n(C)c(=O)n2C (stereo not given) | inactive: 10.2%
100 | CCCc1cc(=O)[nH]c(SCC(=O)NN(c2ccccc2)c2ccccc2)n1 | inactive: -15.3%
101 | COc1cccc(C(NC(C)=O)c2nc(-c3cccc(C#N)c3)cs2)c1 (stereo not given) | inactive: 4.02%
102 | COc1ccc(C(=O)C[n+]2ccc(-c3nnc4n3CCCCC4)cc2)cc1 | inactive: 7.73%
103 | Cc1ccc(C)c(NC(=O)CN(C)C(=O)COc2ncnc3sccc23)c1 | inactive: -1.72%
104 | CCOC(=O)c1ccc(NC(=O)C(CC)Sc2nc3ncccc3o2)cc1 (stereo not given) | inactive: -3.22%
105 | COc1ccc(/C=C2\SC(=O)N(CCNC(=O)Cn3[nH]c(=O)c4ccccc4c3=O)C2=O)cc1 | inactive: 0.952%
